Measured values published in PubChem BioAssay AID1460 (National Center for Advancing Translational Sciences (NCATS), 2008).
Several values for one entry are separate records, joined by “and”; a condition that tells them apart may be missing. Equal entries are not always repeated. Screen size: about 270,000 compounds; about 5,800 (2.1%) were called active. The shares of active, inactive and inconclusive entries below differ from those in the screen. Calls follow the shape of the dose curve; as a rule, active = well fitted inhibition curve with a large enough effect; inconclusive = small, poorly fitted or top-dose-only effect; inactive = flat fitted curve, though single readings scatter. Potencies of inconclusive entries are doubtful fits and often do not repeat.

Target: Microtubule-associated protein tau (Homo sapiens) (UniProt P10636)
Chain of UniProt P10636 (P10636 whole entry, looked up): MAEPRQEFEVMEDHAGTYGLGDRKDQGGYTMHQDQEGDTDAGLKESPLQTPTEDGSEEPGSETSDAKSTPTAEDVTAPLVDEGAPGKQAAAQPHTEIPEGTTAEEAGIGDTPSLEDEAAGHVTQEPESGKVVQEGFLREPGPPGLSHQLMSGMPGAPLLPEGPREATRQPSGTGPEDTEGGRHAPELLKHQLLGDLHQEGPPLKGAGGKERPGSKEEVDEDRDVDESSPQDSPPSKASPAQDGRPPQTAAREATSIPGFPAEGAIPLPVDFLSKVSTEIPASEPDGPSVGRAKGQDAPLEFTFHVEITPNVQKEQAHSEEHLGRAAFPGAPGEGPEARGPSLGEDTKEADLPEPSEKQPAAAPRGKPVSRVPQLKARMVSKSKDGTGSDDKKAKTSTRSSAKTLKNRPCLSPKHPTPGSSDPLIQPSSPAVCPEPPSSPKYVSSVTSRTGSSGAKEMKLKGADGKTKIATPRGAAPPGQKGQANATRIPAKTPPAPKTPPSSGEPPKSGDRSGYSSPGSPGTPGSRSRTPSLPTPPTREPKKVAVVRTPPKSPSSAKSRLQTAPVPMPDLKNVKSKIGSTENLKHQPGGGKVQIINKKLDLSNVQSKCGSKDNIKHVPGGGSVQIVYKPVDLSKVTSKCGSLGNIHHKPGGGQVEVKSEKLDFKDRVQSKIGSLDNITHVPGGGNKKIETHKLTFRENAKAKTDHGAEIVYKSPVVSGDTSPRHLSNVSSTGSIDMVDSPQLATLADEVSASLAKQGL
Assay: qHTS for Inhibitors of Tau Fibril Formation, Thioflavin T Binding; also: nearly all actives have a fitted effect of over 55% in size
Settings: recombinant tau K18 P301L, heparin-induced fibrillization, ThT fluorescence; series mostly up to 57.4 µM; activity, negative = inhibition: at the top concentration
Method in brief: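 ThT emission at 510 nm, taken 1 hr after adding 30 uM dye, quantifies aggregates formed when 20 uM heparin acts on human tau K18 P301L for 6 hr at 37 C.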
% is scaled to controls: 0 for no effect and ±100 for the full control effect; potency is read from the fitted curve at half-maximal effect; tags tell the direction and shape of the fitted curve.

Compound | Potency | activity, negative = inhibition
CCCn1c2ccccc2c2nnc(SCC(=O)Nc3ncccn3)nc21 | inconclusive: 39.8 µM [inhibitor, single point] | –
S=C(Nc1cccnc1)Nc1ccccc1Br | – | inactive: -8.73%
CCNc1sc(C(=O)c2cccs2)c(N)c1C#N | active: 28.2 µM | –
NS(=O)(=O)c1ccc(N2N=C(c3ccccc3)CC2c2cccc(F)c2)cc1 (stereo not given) | inconclusive: 11.2 µM [inhibitor, partial curve, poor fit] | –
CCc1ccccc1NC(=O)Nc1cc(C(=O)NCc2ccc(C)cc2)ccc1N1CCCC1 | – | inactive: -4.63%
CN1CCc2nc(SCCOc3ccccc3)c(C#N)cc2C1 | inconclusive: 12.6 µM [inhibitor, partial curve] | –
CCn1c(CN2c3ccccc3Sc3ccccc32)n[nH]c1=S | inconclusive: 39.8 µM [inhibitor, single point] | –
CC(C(=O)NCc1ccccc1F)n1ccc2cc(S(=O)(=O)N3CCCC3)ccc21 (stereo not given) | – | inactive: 13.9%
CN(C)CC(O)COc1cc2ccccc2cc1C(=O)N1CCCCC1 (stereo not given) | – | inactive: 6.53%
COC(=O)CCC(=O)OC1(C)C(=O)C2=CN(Cc3ccco3)C(c3ccc(OC)cc3)=CC2=C(Br)C1=O (stereo not given) | inconclusive: 8.91 µM [inhibitor, single point] | –
COc1cc(NC(=O)c2ccc([N+](=O)[O-])o2)ccc1NC(=O)c1cccs1 | inconclusive: 0.891 µM [inhibitor, full curve] | –
Cc1sc2nc(C)n(/N=C/N(C)C)c(=O)c2c1C | inconclusive: 1.26 µM [activator, full curve] | –
CC(C)COc1ccc(C(=O)CCN2CCCCC2)cc1 | inconclusive: 20 µM [inhibitor, partial curve] | –
CN(C)S(=O)(=O)c1cccc(-n2sc3ccccc3c2=O)c1 | inconclusive: 3.16 µM [inhibitor, single point] | –
CCc1cccc(C)c1NC(=O)CSc1nnc(CC)n2c1cc1occc12 | inconclusive: 22.4 µM [inhibitor, single point] | –
Cc1ccc(Cl)cc1NC(=O)CSC(N)=O | active: 31.6 µM | –
COc1cc(OC)c2c(-c3ccccc3)cc(=O)oc2c1C(CCN1CCOCC1)c1ccc(N(C)C)cc1 (stereo not given) | inconclusive: 14.1 µM [inhibitor, partial curve, poor fit] | –
COc1ccc(F)cc1S(=O)(=O)NCCc1sc2nc(-c3ccc(F)cc3)nn2c1C | – | inactive: -3.12%
COc1ccc(C(=O)O)cc1NC(=S)NC(=O)c1ccc(-c2ccc(Cl)cc2)o1 | inconclusive: 7.94 µM [inhibitor, partial curve] | –
COc1ccc(-n2c(Cc3cc(=O)[nH]c(=O)[nH]3)nnc2SCC(=O)Nc2ccccc2)cc1 | – | inactive: -8.01%
Cc1cc(C)c2c(n1)nn1c(N3CCN(c4ccccc4)CC3)cc(C)nc21 | inconclusive: 12.6 µM [inhibitor, partial curve] | –
O=C(CCc1ccc(Oc2cc([N+](=O)[O-])cc([N+](=O)[O-])c2)cc1)N1CCCCC1 | – | inactive: 1.52%

Compound | Potency | activity, negative = inhibition
COc1cc(C(=O)Nc2ccc3oc(-c4ccc(C)c(Br)c4)nc3c2)cc(OC)c1OC | inconclusive: 1.12 µM [inhibitor, full curve] | –
COc1ccc(C)cc1NC(=O)C(NC(=O)c1cc(OC)c(OC)c(OC)c1)C(C)C (stereo not given) | – | inactive: -7.56%
COc1ccc(N2CCN(c3oc(/C=C/c4cc(OC)c(OC)c(OC)c4)nc3C#N)CC2)cc1 | – | inactive: -14.9%
Cc1ccc(C2C=NN(c3ccccc3)C2=O)cc1 (stereo not given) | inconclusive: 14.1 µM [inhibitor, partial curve] | –
CCC(=O)c1ccc(N2CCCCCC2)c(F)c1 | inconclusive: 17.8 µM [inhibitor, partial curve] | –
CCN1CCN(C(=S)c2ccc(Cl)cc2)CC1 | inconclusive: 35.5 µM [inhibitor, single point] | –
CCCC(=O)N1CCN(c2ccc(NC(=O)c3ccco3)cc2)CC1 | inconclusive: 7.08 µM [inhibitor, partial curve] | –
O=C(CN1C(=O)COc2ccc(S(=O)(=O)N3CCCCCC3)cc21)NCc1ccc(F)cc1 | – | inactive: 0.0756%
CCOC(=O)C1CCCN(c2ncnc3c2cnn3-c2cccc(C)c2)C1 (stereo not given) | inconclusive: 10 µM [inhibitor, partial curve] | –
N#C/C(=C/c1ccc(OCc2ccc(C(=O)O)cc2)c(Br)c1)c1cccc(F)c1 | inconclusive: 1.12 µM [inhibitor, full curve] | –
O=C(NCCc1ccccc1)c1cnn(-c2ccc(F)cc2)c1-n1cccc1 | inconclusive: 39.8 µM [inhibitor, single point] | –
CCOC(=O)N1CCc2c(sc3c2c(=O)n(CCc2ccccc2)c(=O)n3Cc2c(F)cccc2Cl)C1 | – | inactive: -11.7%
O=C(Cc1n[nH]c(=O)c2ccccc12)OCC(=O)c1ccc2c(c1)OCCO2 | inconclusive: 5.01 µM [inhibitor, partial curve] | –
CCCNc1ccc(C(=O)OCC)cc1[N+](=O)[O-] | inconclusive: 25.1 µM [inhibitor, partial curve] | –
Cc1cc(Nc2cccc(Cl)c2)nc2ccc(NC(=O)c3cccnc3)cc12 | inconclusive: 11.2 µM [inhibitor, partial curve] | –
CCCSCCCNC(=O)c1ccc2nc(Cc3ccccc3)oc2c1 | inconclusive: 14.1 µM [inhibitor, single point] | –
CC1CC[C@@]23CCC4(C)[C@@]5(C)CCC6C(C)(C)C(O)CC[C@@]6(C)C5C=C[C@@]4(OC2=O)C3C1C (stereo not given in full) | inconclusive: 2.24 µM [inhibitor, partial curve] | –
O=C(N/N=C/c1sc(N2CCOCC2)nc1-c1ccccc1)c1ccc(O)cc1 | inconclusive: 31.6 µM [inhibitor, single point] | –
Cc1onc(-c2c(Cl)cccc2Cl)c1C(=O)NCCc1ccc(S(N)(=O)=O)cc1 | – | inactive: 3.54%
Nc1nc(-c2cccnc2)nn1C(=O)c1ccc(F)cc1 | inconclusive: 31.6 µM [inhibitor, single point] | –
O=c1[nH]c(N/N=C\c2ccc(F)cc2)nc2ccccc12 | inconclusive: 3.16 µM [inhibitor, full curve] | –
CCOc1ccc(/C=C(\C#N)C(=O)Nc2cccnc2)cc1 | inconclusive: 11.2 µM [inhibitor, partial curve] | –

Compound | Potency | activity, negative = inhibition
Nc1cnn(Cc2ccccc2F)c1 | inconclusive: 39.8 µM [inhibitor, single point] | –
Cc1ccc(SCC(=O)Nc2ccc(-c3nc4ccccc4[nH]3)cc2)cc1 | inconclusive: 5.01 µM [activator, full curve, poor fit] | –
CCCCN(C(=O)Cn1nnc2ccccc21)C(C(=O)NCc1ccco1)c1ccncc1 (stereo not given) | inconclusive: 31.6 µM [inhibitor, partial curve] | –
O=c1c2ccccc2c(-c2cccc(C(F)(F)F)c2)nn1-c1ccccc1 | – | inactive: -7.08%
Cc1ccc(OCC(=O)Nc2ccc3nc(SCC(=O)N4CCc5ccccc54)sc3c2)cc1 | inconclusive: 2.51 µM [inhibitor, full curve] | –
Cc1cccc(-n2nnnc2SCC(=O)Nc2cccc(S(N)(=O)=O)c2)c1 | – | inactive: -4.11%
COc1ccc(C(=O)NCCn2cc(SCC(=O)Nc3cc(C)on3)c3ccccc32)cc1OC | inconclusive: 25.1 µM [inhibitor, single point] | –
COc1ccccc1CNC(=O)c1ccc(-c2nc(CN3CCc4ccccc43)c(C)o2)cc1 | inconclusive: 7.94 µM [inhibitor, partial curve] | –
O=C(O)c1ccc(NC(=S)NC(=O)c2cccc(COc3ccccc3)c2)cc1 | inconclusive: 31.6 µM [inhibitor, partial curve] | –
COc1ccccc1N=CC=C1OC(C)(C)C(C)(C)O1 | inconclusive: 17.8 µM [inhibitor, partial curve] | –
COc1ccc(C(CCNC(C)c2ccccc2)c2ccc(F)cc2)cc1 (stereo not given) | inconclusive: 31.6 µM [inhibitor, partial curve] | –
Cc1ccsc1/C=N/NC(=O)Cc1cccn1C | inconclusive: 25.1 µM [inhibitor, partial curve] | –
C=CCn1c(C)cc(/C([O-])=C(/C(=S)Nc2ccc(OC(F)F)cc2)[n+]2ccc(N(C)C)cc2)c1C | inconclusive: 22.4 µM [inhibitor, single point] | –
COc1cc(N)c(Cl)cc1C(=O)N[C@@H]1CCN(CCCOc2ccc(F)cc2)C[C@@H]1OC | inconclusive: 22.4 µM [inhibitor, single point] | –
Cc1ccc2c(c1Br)/C(=N/N1C(=O)c3ccccc3C1=O)C(=O)N2 | inconclusive: 31.6 µM [inhibitor, partial curve, poor fit] | –
Cc1cc(C)cc(OCC(=O)Nc2ccc(-c3nc4ccccc4o3)cc2)c1 | inconclusive: 0.447 µM [inhibitor, full curve] | –
O=C(NNC(=O)c1nn(-c2ccc(F)cc2)ccc1=O)c1ccc(Cl)cc1 | inconclusive: 39.8 µM [inhibitor, single point] | –
Cc1cc(C)c2c(CC(=O)N(Cc3ccccc3)C3CCS(=O)(=O)C3)coc2c1 (stereo not given) | – | inactive: -15.1%
CCC(c1nnnn1C(C)(C)C)N1CCN(c2cc(Cl)ccc2C)CC1 (stereo not given) | inconclusive: 44.7 µM [inhibitor, single point] | –
CCCCC1=CC2=CC(=O)C(C)(OC(=O)CC)C(=O)C2=CN1c1ccccc1 (stereo not given) | inconclusive: 20 µM [inhibitor, partial curve] and inconclusive: 1.41 µM [activator, single point] | –
FC(F)(F)c1cccc(N2CCc3cn[nH]c32)c1 | inconclusive: 25.1 µM [inhibitor, partial curve] | –
